# Measured values taken from the supplement of paper PMC8728848.
# The list shows a part of the results.
# B1: GS7807E-bfa-538-23-538 (Bacteroides fragilis) (protein)
# chain: TDSFESFNTNEAGFDNDSKKQDFNYYGIPLGIIQQGIYFNYDWGSGKNWPFQTMQNLGADLFSGYVHDFNPFNEGKNNSTYYMMDGWNGSTWDNTYGYIMPEVQKSETINEKDNIGFFGITKILKVELMHRLSDLYGPIVYTQFGSKTGSTPDTQQEAYKAFFNDLDTGIAKIREYQKANPDIESFAKFDILMPQGKRTFSEWIRFANSLRLRLAVRIAMADSKLAVAEAQKALTDEEGLLEGNDEVVAVSTSSGYTNPFGEINKAWGEVFMNANMESLLVGYEDPRMEKYFDKATGSDATSLIDYKGTYKGIRQGTGFSHKNYNGHSKSTITQQTDAVLMTPAEVWFLRAEAALRGWSSESVKDCYEKGVKASFAQWGAAGAEAYLESDRKPSDYVDAFKAANNVKAVNTLTPKWDDAAGNEDKLGRIITQKWLAMFPEGGEAWAEQRRTGYPRLFPVLVNQSEGTVDTNLGPRRLNFFVGIKTTNPEQYTQLVNALGGIDNCGTRLWWDTGRNF
# Key:
# Assay in all cases: glycan array binding signal (z-score within array); higher = stronger binding
# Conditions in all cases: glycan notation: IUPAC condensed, linker removed
# [1] = target: Gal(a1-3)[Gal(a1-4)]Gal(b1-4)GlcNAc
# In short: (§1)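 The binding signal is a Z-score computed within each array. Data were drawn from 3228 arrays in the Consortium for Functional Glycomics database, restricted to those with a known protein sequence. Scores were averaged over arrays of the same protein sequence at different concentrations or buffers, and over linkers, and negative values can be taken as non-binding.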
# [2] = target: Gal(a1-4)Gal(b1-3)GlcNAc(b1-2)Man(a1-3)[Gal(a1-4)Gal(b1-3)GlcNAc(b1-2)Man(a1-6)]Man(b1-4)GlcNAc(b1-4)GlcNAc
# In short: as §1
# Gal(a1-4)Gal(b1-4)Glc = target: Gal(a1-4)Gal(b1-4)Glc
# In short: as §1
# Gal(a1-4)Gal(b1-4)GlcNAc = target: Gal(a1-4)Gal(b1-4)GlcNAc
# In short: as §1
# [3] = target: Gal(a1-4)Gal(b1-4)GlcNAc(b1-2)Man(a1-3)[Gal(a1-4)Gal(b1-4)GlcNAc(b1-2)Man(a1-6)]Man(b1-4)GlcNAc(b1-4)GlcNAc
# In short: as §1
# [4] = target: Gal(a1-4)Gal(b1-4)GlcNAc(b1-3)Gal(b1-4)Glc
# In short: as §1
# Gal(a1-4)GlcNAc = target: Gal(a1-4)GlcNAc
# In short: as §1
# Gal(a1-6)Glc = target: Gal(a1-6)Glc
# In short: as §1
# Gal(b1-2)Gal = target: Gal(b1-2)Gal
# In short: as §1
# Gal(b1-3)Gal = target: Gal(b1-3)Gal
# In short: as §1
# Gal(b1-3)Gal(b1-4)GlcNAc = target: Gal(b1-3)Gal(b1-4)GlcNAc
# In short: as §1
# Gal(b1-3)GalNAc = target: Gal(b1-3)GalNAc
# In short: as §1
# [5] = target: Gal(b1-3)GalNAc(a1-3)[Fuc(a1-2)]Gal(b1-4)Glc
# In short: as §1
# [6] = target: Gal(b1-3)GalNAc(a1-3)[Fuc(a1-2)]Gal(b1-4)GlcNAc
# In short: as §1
# Gal(b1-3)GalNAc(b1-3)Gal = target: Gal(b1-3)GalNAc(b1-3)Gal
# In short: as §1
# [7] = target: Gal(b1-3)GalNAc(b1-3)Gal(a1-4)Gal(b1-4)Glc
# In short: as §1
# [8] = target: Gal(b1-3)GalNAc(b1-4)Gal(b1-4)Glc
# In short: as §1
# [9] = target: Gal(b1-3)GalNAc(b1-4)[Neu5Ac(a2-3)]Gal(b1-4)Glc
# In short: as §1
# Gal(b1-3)GlcNAc = target: Gal(b1-3)GlcNAc
# In short: as §1
# [10] = target: Gal(b1-3)GlcNAc(a1-3)Gal(b1-4)GlcNAc
# In short: as §1
# [11] = target: Gal(b1-3)GlcNAc(a1-6)Gal(b1-4)GlcNAc
# In short: as §1
# Gal(b1-3)GlcNAc(b1-2)Man = target: Gal(b1-3)GlcNAc(b1-2)Man
# In short: as §1
# [12] = target: Gal(b1-3)GlcNAc(b1-2)Man(a1-3)[Gal(b1-3)GlcNAc(b1-2)Man(a1-6)]Man(b1-4)GlcNAc(b1-4)GlcNAc
# In short: as §1
# [13] = target: Gal(b1-3)GlcNAc(b1-2)Man(a1-3)[Gal(b1-3)GlcNAc(b1-2)Man(a1-6)]Man(b1-4)GlcNAc(b1-4)[Fuc(a1-6)]GlcNAc
# In short: as §1
# [14] = target: Gal(b1-3)GlcNAc(b1-2)Man(a1-3)[GlcNAc(b1-4)][Gal(b1-3)GlcNAc(b1-2)Man(a1-6)]Man(b1-4)GlcNAc(b1-4)GlcNAc
# In short: as §1
# [15] = target: Gal(b1-3)GlcNAc(b1-2)[Gal(b1-3)GlcNAc(b1-6)]Man(a1-6)[Gal(b1-3)GlcNAc(b1-2)Man(a1-3)]Man(b1-4)GlcNAc(b1-4)GlcNAc
# In short: as §1
# [16] = target: Gal(b1-3)GlcNAc(b1-3)Gal(b1-3)GlcNAc
# In short: as §1
# [17] = target: Gal(b1-3)GlcNAc(b1-3)Gal(b1-4)Glc
# In short: as §1
# [18] = target: Gal(b1-3)GlcNAc(b1-3)Gal(b1-4)GlcNAc
# In short: as §1
# [19] = target: Gal(b1-3)GlcNAc(b1-3)Gal(b1-4)GlcNAc(b1-2)Man(a1-3)[Gal(b1-3)GlcNAc(b1-3)Gal(b1-4)GlcNAc(b1-2)Man(a1-6)]Man(b1-4)GlcNAc(b1-4)GlcNAc
# In short: as §1
# [20] = target: Gal(b1-3)GlcNAc(b1-3)Gal(b1-4)GlcNAc(b1-2)[Gal(b1-3)GlcNAc(b1-3)Gal(b1-4)GlcNAc(b1-6)]Man(a1-6)[Gal(b1-3)GlcNAc(b1-3)Gal(b1-4)GlcNAc(b1-2)Man(a1-3)]Man(b1-4)GlcNAc(b1-4)[Fuc(a1-6)]GlcNAc
# In short: as §1
# [21] = target: Gal(b1-3)GlcNAc(b1-3)Gal(b1-4)GlcNAc(b1-3)Gal(b1-4)GlcNAc(b1-2)[Gal(b1-3)GlcNAc(b1-3)Gal(b1-4)GlcNAc(b1-3)Gal(b1-4)GlcNAc(b1-6)]Man(a1-6)[Gal(b1-3)GlcNAc(b1-3)Gal(b1-4)GlcNAc(b1-3)Gal(b1-4)GlcNAc(b1-2)Man(a1-3)]Man(b1-4)GlcNAc(b1-4)[Fuc(a1-6)]GlcNAc
# In short: as §1
# [22] = target: Gal(b1-3)GlcNAc(b1-3)Gal(b1-4)GlcNAc(b1-6)[Gal(b1-3)GlcNAc(b1-3)]Gal(b1-4)Glc
# In short: as §1
# [23] = target: Gal(b1-3)GlcNAc(b1-3)Gal(b1-4)[Fuc(a1-3)]GlcNAc
# In short: as §1
# [24] = target: Gal(b1-3)GlcNAc(b1-3)Gal(b1-4)[Fuc(a1-3)]GlcNAc(b1-6)[Gal(b1-3)GlcNAc(b1-3)]Gal(b1-4)Glc
# In short: as §1
# [25] = target: Gal(b1-3)GlcNAc(b1-3)GalNAc
# In short: as §1
# [26] = target: Gal(b1-3)GlcNAc(b1-6)Gal(b1-4)GlcNAc
# In short: as §1
# [27] = target: Gal(b1-3)GlcNAc(b1-6)GalNAc
# In short: as §1
binder,measurement,setting,value
B1,glycan array binding signal (z-score),[1],0.869
same,glycan array binding signal (z-score),[2],0.984
same,glycan array binding signal (z-score),Gal(a1-4)Gal(b1-4)Glc,1.11
same,glycan array binding signal (z-score),Gal(a1-4)Gal(b1-4)GlcNAc,0.333
same,glycan array binding signal (z-score),[3],0.087
same,glycan array binding signal (z-score),[4],-0.087
same,glycan array binding signal (z-score),Gal(a1-4)GlcNAc,-0.696
same,glycan array binding signal (z-score),Gal(a1-6)Glc,-0.29
same,glycan array binding signal (z-score),Gal(b1-2)Gal,-0.253
same,glycan array binding signal (z-score),Gal(b1-3)Gal,0.016
same,glycan array binding signal (z-score),Gal(b1-3)Gal(b1-4)GlcNAc,-0.433
same,glycan array binding signal (z-score),Gal(b1-3)GalNAc,0.058
same,glycan array binding signal (z-score),[5],-0.377
same,glycan array binding signal (z-score),[6],-0.39
same,glycan array binding signal (z-score),Gal(b1-3)GalNAc(b1-3)Gal,0.209
same,glycan array binding signal (z-score),[7],0.143
same,glycan array binding signal (z-score),[8],1.24
same,glycan array binding signal (z-score),[9],1
same,glycan array binding signal (z-score),Gal(b1-3)GlcNAc,-0.584
same,glycan array binding signal (z-score),[10],0.48
same,glycan array binding signal (z-score),[11],1.08
same,glycan array binding signal (z-score),Gal(b1-3)GlcNAc(b1-2)Man,-0.587
same,glycan array binding signal (z-score),[12],2.49
same,glycan array binding signal (z-score),[13],2.67
same,glycan array binding signal (z-score),[14],0.459
same,glycan array binding signal (z-score),[15],0.416
same,glycan array binding signal (z-score),[16],0.812
same,glycan array binding signal (z-score),[17],0.005
same,glycan array binding signal (z-score),[18],-0.682
same,glycan array binding signal (z-score),[19],-0.322
same,glycan array binding signal (z-score),[20],0.801
same,glycan array binding signal (z-score),[21],0.736
same,glycan array binding signal (z-score),[22],-0.346
same,glycan array binding signal (z-score),[23],-0.465
same,glycan array binding signal (z-score),[24],-0.627
same,glycan array binding signal (z-score),[25],1.68
same,glycan array binding signal (z-score),[26],-0.525
same,glycan array binding signal (z-score),[27],1.02
